{
  "source": "patent US20070087400A1",
  "about": "“Covalent tethering of functional groups to proteins and substrates therefor” (priority 2004, published 2007)",
  "molecules": {"B1": {"name": "DhaA.H272F-Flag: DhaA.H272F with Flag epitope at the C-terminus (protein)", "chain": "MSEIGTGFPFDPHYVEVLGERMHYVDVGPRDGTPVLFLHGNPTSSYLWRNIIPHVAPSHRCIAPDLIGMGKSDKPDLDYFFDDHVRYLDAFIEALGLEEVVLVIHDWGSALGFHWAKRNPERVKGIACMEFIRPIPTWDEWPEFARETFQAFRTADVGRELIIDQNAFIEGALPKCVVRPLTEVEMDHYREPFLKPVDREPLWRFPNELPIAGEPANIVALVEAYMNWLHQSPVPKLLFWGTPGVLIPPAEAARLAESLPNCKTVDIGPGLFYLQEDNPDLIGSEIARWLPALTGDYKDDDDK"}},
  "experiment": "Capturing of DhaA.H272F fusions expressed in CHO-K1 cells on SA-coated beads",
  "settings": "cells treated with biotin-C10H21NO2—Cl 25 μM, 60 minutes; Western blot",
  "data": [
    {"molecule": "B1", "values": [
      {"measurement": "fraction of expressed protein captured on SA-coated beads", "value": "more than 50%"}
    ]}
  ]
}
